# Reference: PMC6919601, “Identification of Plasmodium dipeptidyl aminopeptidase allosteric inhibitors by high throughput screening” (PLoS ONE, 2019)
# Where “and” joins values, the source holds several entries; their conditions need not be identical. Equal values may be shown once. About 230 (0.21%) of roughly 110,000 compounds showed an effect of 50% or more. The list shows a part of the results.
# Molecular target: DPAP1 (Plasmodium falciparum, UniProt Q8IIJ9)
# Test: primary screen, percent inhibition; read by cleavage of a fluorogenic dipeptide substrate; higher = more effect of the substance
# Set-up: species or system P. falciparum D10 trophozoite lysates; single well
# 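Also: 30 min substrate incubation versus DMSO and 10 µM JCP410 controls.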
# Sequence of DPAP1 (Q8IIJ9 whole entry, looked up): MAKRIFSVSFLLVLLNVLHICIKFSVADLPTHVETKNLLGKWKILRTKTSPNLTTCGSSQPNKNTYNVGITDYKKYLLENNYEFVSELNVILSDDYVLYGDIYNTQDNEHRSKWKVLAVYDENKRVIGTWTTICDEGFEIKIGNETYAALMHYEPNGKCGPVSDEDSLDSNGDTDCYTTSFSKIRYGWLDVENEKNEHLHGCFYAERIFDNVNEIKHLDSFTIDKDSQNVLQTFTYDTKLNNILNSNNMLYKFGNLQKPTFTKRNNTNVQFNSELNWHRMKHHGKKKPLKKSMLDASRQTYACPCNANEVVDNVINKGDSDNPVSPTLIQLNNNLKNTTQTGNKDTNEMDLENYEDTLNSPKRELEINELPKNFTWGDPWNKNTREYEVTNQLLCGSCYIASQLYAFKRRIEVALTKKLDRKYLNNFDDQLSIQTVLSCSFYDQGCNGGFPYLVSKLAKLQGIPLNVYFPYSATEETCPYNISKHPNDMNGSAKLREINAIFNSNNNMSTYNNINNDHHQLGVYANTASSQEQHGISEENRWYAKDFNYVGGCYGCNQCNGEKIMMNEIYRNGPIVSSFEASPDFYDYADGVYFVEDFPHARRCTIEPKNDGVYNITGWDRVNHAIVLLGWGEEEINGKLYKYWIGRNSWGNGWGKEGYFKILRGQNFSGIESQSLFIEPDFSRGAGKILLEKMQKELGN
row,Structure (SMILES),% Inhibition @ 10 uM
1,COc1cccc(-c2nnc3n(Cc4ccccc4)c(=O)c4ccccc4n23)c1O,-3.51%
2,COc1ccc(COC(=O)C2=C(C)NC(=O)NC2c2ccc(Cl)cc2)cc1 (stereo not drawn),-0.769%
3,O=C(O)Cn1nnc(-c2cccs2)n1,1.12%
4,O=C1OC2(CCCC2)OC(=O)C1=Cc1cc(Cl)c(O)c(Cl)c1,-1.47%
5,COc1ccc(NC(=O)C(CC(=O)O)Cc2ccc(Br)cc2)cc1 (stereo not drawn),4.85%
6,CCOc1ccc2oc(-c3ccccc3)c(C(=O)N(C)C)c2c1,0.235%
7,CC/N=C1/SC(C(=O)Nc2cccc(OC)c2)CC(=O)N1CC (stereo not drawn),-3.24%
8,CC1=CC2=NC(C(F)(F)F)(C(F)(F)F)N=C(C)N2C=C1,-5.4%
9,CC1(C)CC(=O)C2=C(C1)N(c1ccc(S(N)(=O)=O)cc1)C(N)=C(C#N)C2c1ccccc1F (stereo not drawn),-3.19%
10,CCC(C)NC(=O)C1CCN(C(=O)c2ccccc2Cl)CC1 (stereo not drawn),1.52%
11,COc1ccc(-c2noc(CC(=O)Nc3cccc(C)n3)n2)cc1,-5.26%
12,CCc1ccc(-c2nc3cc(NC(=O)c4cccc5ccccc45)ccc3o2)cc1,-0.591%
13,CCC(C(=O)NCCc1ccc(Cl)cc1)n1nc(C)c2c(C)n(-c3ccc(C)cc3)nc2c1=O (stereo not drawn),-8.14%
14,Cc1cc(-n2cc3c(c2-c2ccccc2)c(=O)n(C)c(=O)n3C)no1,0.758%
15,CCOC(=O)C1=C(C)OC(N)=C(C#N)C1c1ccccc1OC (stereo not drawn),-1.69%
16,N#CCCN1CCN(C2=NC(=O)/C(=C/c3ccc(Cl)cc3)S2)CC1,-1.02%
17,Cc1ccc(-c2ccc(/C=C(\C#N)C(=O)NCCO)o2)cc1,4.35%
18,Cc1ccc(-c2csc(-c3cc4cc(Cl)cc(Cl)c4oc3=O)n2)c(C)c1,-2.42%
19,CCOC(=O)N1CCN(C(=O)CCCCCNc2nc(S)nc3ccccc23)CC1,5.84%
20,O=C(O)COc1ccc(NC(=O)c2ccccc2)cc1,7.71%
21,O=C(NCCc1ccccc1)c1ccc(C2SCC(=O)N2CCc2ccccc2)cc1 (stereo not drawn),-6.78%
22,CC(=O)Nc1ccc(CN2CCCN(C)CC2)cc1,3.84%
23,CCc1nn(CC(=O)NC(C)CC)c(=O)c2cc3sccc3n12 (stereo not drawn),1.8%
24,Cc1cccc(Cn2c(NCC(C)O)nc3c2c(=O)n(C)c(=O)n3C)c1 (stereo not drawn),5.06%
25,CSCCC(NC(=O)c1cc(C)oc1C)C(=O)O (stereo not drawn),0.413%
26,CCOC(=O)c1cnc(SCc2ccc(OC)cc2)nc1N,-3.36%

row,Structure (SMILES),% Inhibition @ 10 uM
1,Cn1c(=O)c2c(O)c([N+](=O)[O-])c(O)nc2n(C)c1=O,-1.76%
2,CC1=CC(C)C2C(=O)N(O)C(=O)C2C1 (stereo not drawn),8.07%
3,CC(=O)Nc1ccc(C2C(C#N)=C(N)OC3=C2C(=O)CC(c2ccccc2)C3)cc1 (stereo not drawn),8.01%
4,COc1ccc(OC)c(NC(=O)CN(c2cc(Cl)ccc2OC)S(C)(=O)=O)c1,-7.63%
5,Cc1cc(=O)n2nc(N3CCCC(C(=O)NCCc4ccccc4)C3)sc2n1 (stereo not drawn),3%
6,COC(=O)C1=NNC2C(=O)N(c3ccccc3)C(=O)C12 (stereo not drawn),-1.85%
7,O=C(NCc1ccc2c(c1)OCO2)C1CCCN1S(=O)(=O)c1cccc2cccnc12 (stereo not drawn),-6.07%
8,O=C(COc1ccc(S(=O)(=O)NCc2ccccc2)cc1Cl)N1CCOCC1,5.14%
9,Cc1cc(=O)n(C)c(=O)n1CCCCO,-3.65%
10,O=C1C2CC=CCC2C(=O)N1Cc1ccccc1 (stereo not drawn),4.07%
11,CCOC(=O)c1c(-c2ccc(F)cc2)csc1N,0.716%
12,CCN(C(=O)c1ccc(C)cc1)c1nc(-c2ccccc2)cs1,1.22%
13,Cn1cccc1-c1nc2cc(NC(=O)c3cccs3)ccc2[nH]1,4.31%
14,Cc1ccccc1CN(c1ccc(C(=O)NCc2ccncc2)cc1)S(C)(=O)=O,-7.17%
15,COc1ccc(Nc2ccnc(Nc3ccc(OC)cc3)n2)cc1,5.07%
16,Cc1ccc(-n2ncc(C(=O)NC3CCC(C)CC3)c2-n2cccc2)cc1 (stereo not drawn),9.38%
17,Cc1oc2c(O)c(O)ccc2c(=O)c1Oc1ccc(F)cc1,0.512%
18,COc1ccc(C2=NN(C(C)=O)C(c3ccc(OC)cc3)C2)cc1 (stereo not drawn),9.1%
19,NC(=O)NC(Cc1ccccc1)C(=O)O (stereo not drawn),-6.84%
20,CC(C)Oc1ccc(C(=O)Nc2cccnc2)cc1,1.59%
21,Cc1ccc(-c2nn3c(CC#N)nnc3c3ccccc23)cc1,6.38%
22,CCCOc1ccc(C(=O)Nc2ccc(N3CCOCC3)cc2)cc1,-5.26%
23,CCN(CCN(C)C)Cc1ccc(C(C)C)cc1,-1.78%
24,OCC1CCCCN1Cc1ccco1 (stereo not drawn),-2.12%
25,CCOc1ccc(CCNc2cc(C)nc3nc(C)nn23)cc1OCC,-5.29%
26,CN(Cc1ccccc1)S(=O)(=O)c1ccc2ncc(C(=O)NCC3CCCO3)c(O)c2c1 (stereo not drawn),5.21%

row,Structure (SMILES),% Inhibition @ 10 uM
1,Cc1ccccc1OCC(=O)Nc1nonc1NC(=O)COc1ccccc1C,0.316%
2,CCC(C(=O)c1ccccc1)n1c(N2CCOCC2)nc2c1c(=O)n(C)c(=O)n2C (stereo not drawn),-10.4%
3,Cn1c(=O)n(CCSc2ccc(Cl)cc2)c(=O)c2ccccc21,4.27%
4,COc1ccc(C2=NS(=O)(=O)N(C)C(C(=O)NCC3CCCO3)=C2)cc1 (stereo not drawn),-2.84%
5,CC1=C(C(=O)Nc2ccc(Cl)cc2)C(c2ccc(Cl)cc2Cl)NC(S)=N1 (stereo not drawn),-2.2%
6,CC(C)C[C@H](NC(=O)c1ccc2c(c1)-c1ccccc1-2)C(=O)NCC#N,1.35%
7,CC1CCN(C2CC(=O)N(c3ccc(N4C(=O)CC(N5CCC(C)CC5)C4=O)cc3)C2=O)CC1 (stereo not drawn),-1.11%
8,Cc1cccc(C(=O)Nc2ccc(Cl)cc2Cl)c1,-3.04%
9,CN(c1ccccc1C(=O)Nc1ccc2ccccc2c1)S(C)(=O)=O,-0.99%
10,CCc1ccccc1NC(=O)C(C)Oc1ccccc1 (stereo not drawn),3.09%
11,Cc1nn(Cc2ccccc2Cl)c(C)c1NC(=O)COCc1cc(-c2cccs2)on1,-3.25%
12,N#C/C(=C\c1ccc2c(c1)OCO2)c1n[nH]c(N)c1C#N,0.779%
13,CC(C)C[C@H](NS(=O)(=O)c1ccccc1)C(=O)NCC#N,-3.04%
14,CCCCN(C)C(=O)c1coc(=O)c2ccccc12,0.974%
15,O=C(Nc1ccc(-c2nc(O)c3ccccc3n2)cc1)C1CCCCC1,2.42%
16,Cc1ccc(-c2nc(CS(=O)(=O)CC(=O)NCCN(C)C)c(C)o2)cc1,3.19%
17,CCN(Cc1ccccc1)C(=O)C(c1ccccc1)N1Cc2ccccc2C1=O (stereo not drawn),-4.96%
18,O=C(Nc1cccc(OC(F)(F)F)c1)c1cccnc1,-3.83%
19,Cc1cc(C)n(CC(=O)O)c(=O)n1,-0.0267%
20,CCOc1ccc(-c2nonc2NC(=O)Cc2ccc(Cl)cc2)cc1,-1.11%
21,Cc1ccc(CS(=O)Cc2ccc(C(=O)NCCC(C)C)o2)cc1 (stereo not drawn),5.91%
22,Cc1cccc(NC(=O)c2cccc(S(=O)(=O)N3CCCCC3)c2)c1,-11.4%
23,Cc1nnc2nc(SCC(=O)NCc3ccco3)n(-c3ccccc3Cl)c(N)c1-2,-3.93%
24,COc1ccc(C2CC(O)=C/C(=N/C3CCCCCC3)C2)cc1 (stereo not drawn),-0.105%
25,COc1cccc(Nc2nc(-c3cc(C)ccc3C)cs2)c1,2.78% and 5.29%
26,Cn1c(=O)c2c(O)c(Sc3ccccc3C(=O)O)c(=O)n(C)c2n(C)c1=O,-1.07%

row,Structure (SMILES),% Inhibition @ 10 uM
1,COc1ccc(CNCc2ccc(Cl)cc2)cc1OC,-1.92%
2,COc1cc2sc(C)nc2cc1C,0.0345%
3,Cc1cc(=O)oc2c1c(C)nn2-c1ccc(C(=O)O)cc1,4.96%
4,C=CCC1(C#N)C(S)=NC(C)=C(C(C)=O)C1c1ccc(Cl)cc1 (stereo not drawn),-2.81%
5,COc1ccc(CC(=O)Nc2nc3nc(C)cc(O)n3n2)cc1,0.401%
6,COc1ccc(-c2nnn(CC(=O)O)n2)cc1,3.73%
7,CCCOC(=O)C1=C(C)NC(=O)NC1c1ccc(CC)cc1 (stereo not drawn),14.5%
8,O=C(NCCCN1CCCCCC1)C1CC(=O)N(CCc2ccccc2)C1 (stereo not drawn),3.24%
9,Cc1cc2c(cc1Br)NC(=O)C21C(C#N)=C(N)OC2=C1C(=O)CC(C)(C)C2 (stereo not drawn),-4.15%
10,CCCCOc1ccc(N2C(=O)CC(N3CCN(Cc4ccc5c(c4)OCO5)CC3)C2=O)cc1 (stereo not drawn),0.52%
11,CC1CC(C)CN(c2cnnc3c(Cl)cccc23)C1 (stereo not drawn),2.76%
12,CC1(C)CC(C)(C)OC(c2ccccc2)=N1,2.94%
13,CCc1ccc2oc(C(=O)Nc3nonc3C)c(C)c2c1,3.51%
14,CCOC(=O)c1c(C)n(-c2ccc(OC)cc2)c2ccc(O)c(CN3CCOCC3)c12,1.76%
15,Cc1ccc(C(=O)Nc2ccc(C)c(O)c2)cc1C,0.907%
16,CCOc1cc2c(cc1OCC)C(c1cc(OC)ccc1F)NCC2 (stereo not drawn),1.93%
17,COCCCNC(=O)CSc1nc2c(sc3ccccc32)c(=O)n1CCC(=O)NC(C)C,6.26%
18,COc1ccc(NC(=O)CN(c2ccc(Cl)cc2Cl)S(=O)(=O)c2ccccc2)c(OC)c1,-2.09%
19,COC(=O)c1c(NC(=O)CCC(=O)O)sc(C)c1-c1ccc(C)c(C)c1,29.7%
20,C=Cc1ccc(Cn2c(C(=O)O)c(CNCc3ccc(C)o3)c3ccccc32)cc1,5.94%
21,CC1=C(C(=O)Nc2ccccc2C)C(c2ccc(N(C)C)cc2)NC(S)=N1 (stereo not drawn),-3.35%
22,CCCCNS(=O)(=O)c1ccc(OC)c(-c2nnc3c4ccccc4c(C)nn23)c1,-3.14%
23,O=C(NCc1ccc(F)cc1)c1cc2ccccc2oc1=O,3.94%
24,CS(=O)(=O)N(CC(=O)Nc1ccccc1C(F)(F)F)Cc1ccccc1,-4.39%
